This is one part of the list. At the low end of the ranking, values are background and their order means little.

In this experiment the target is T1, GST-Rok-C97-191 (UniProt O34857).
T1 sequence: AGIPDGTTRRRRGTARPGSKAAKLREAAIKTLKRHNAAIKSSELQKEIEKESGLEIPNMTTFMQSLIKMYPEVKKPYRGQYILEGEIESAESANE
Briefly: protein binding microarray.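 Further: rank score from −0.5 (least bound) to 0.5 (best bound).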 To be noted: Rok is a gene silencer of Bacillus subtilis; high values mean tight binding; most listed sequences are background and not binding sites; double strand, one strand shown.
ACCGGTCC: the binding signal was -0.156 E-score.
The sequence TCAATGAA came in with a binding signal of -0.109 E-score.
To AAAGTCCC belongs -0.253 E-score; to ACGATGCC, -0.0936 E-score; to ATACCTAT, 0.323 E-score.
To CCTGCGTA belongs -0.031 E-score; to TGACGACA, -0.23 E-score.
In the case of ATCCCCCC it was -0.26 E-score.
Sequence AGGTGACA registered a binding signal of 0.055 E-score.
CGGGCGTA: the binding signal was -0.0765 E-score.
As to GGTACTAA, the binding signal was found to be 0.249 E-score.
Sequence GAGCGATC gave a binding signal of -0.0781 E-score.
ATTGGGAG showed a binding signal of 0.0203 E-score.
The sequence CAATGTGA gave a binding signal of 0.158 E-score.
To AGGGGGAC belongs -0.31 E-score; to CCTGTTGC, -0.301 E-score; to CCACAAAA, -0.0888 E-score.
For AAAGTACC, the binding signal was 0.291 E-score.
To CTACTTCC belongs 0.238 E-score; to CGTGACAC, -0.166 E-score; to GCATACGA, 0.123 E-score.
To TGCGGTAA belongs 0.0217 E-score; to AAAATGTG, 0.218 E-score; to GGGGTCAA, -0.299 E-score.
Turning to CGGATGGA, the binding signal was 0.0108 E-score.
The sequence CCGCTACG displayed a binding signal of -0.154 E-score.
To GGCAGGCC belongs -0.335 E-score.
The sequence ATGGGCCC displayed a binding signal of -0.271 E-score.
Turning to GGCCGACA, the binding signal is -0.327 E-score.
As to CTCGCAAA, the binding signal came out at 0.0435 E-score.
GGCATGAC yielded a binding signal of -0.224 E-score.
In the case of GATTGGGC it was -0.358 E-score.
In the case of CAAGCGAA it was -0.223 E-score; in that of GACGCCCA, -0.364 E-score; in that of AGTAATGG, 0.153 E-score.
ATAGTCAG registered a binding signal of 0.132 E-score.
To ACTAGTCA belongs 0.228 E-score; to GATCTATA, 0.305 E-score.
In the case of ACTAGATG it was 0.317 E-score.
To AGGAAGCG belongs -0.177 E-score; to AAGACCGA, -0.272 E-score; to AGCAGCAC, -0.144 E-score.
With CGCGTACA, the binding signal stood at 0.049 E-score.
On to GTAAAAGA, for which the binding signal is 0.233 E-score.
ATGAAGCC: the binding signal was -0.236 E-score.
To TGAAAGAA belongs 0.12 E-score; to GCCAAAAC, -0.0219 E-score.
In the case of CCTGAGAC it was -0.304 E-score; in that of TGGGCCAA, -0.218 E-score.
To CAGGACGA belongs -0.231 E-score.
As to GCCCATGA, the binding signal was -0.214 E-score.
The sequence AACGTACC yielded a binding signal of -0.0927 E-score.
In the case of AAGACGGC it was -0.186 E-score; in that of ATCCGCAG, 0.00726 E-score; in that of GCCCCTAA, -0.239 E-score.
In the case of AGTCTCCC it was -0.203 E-score; in that of AAAAGAGT, 0.105 E-score; in that of CACAACAA, 0.0807 E-score.
To CCTACGCG belongs -0.16 E-score; to CGAATAAG, 0.0155 E-score.
For AAGAGTCG, the binding signal was -0.189 E-score.
In turn, ACACTGGC gave a binding signal of -0.127 E-score.
To GAAAAGGA belongs -0.0549 E-score; to ATCAGCTA, 0.165 E-score; to ATTTGATC, 0.158 E-score.
ACACAAGC showed a binding signal of -0.19 E-score.
As for ACTGGCCC, the binding signal is -0.175 E-score.
The sequence CCGTAATC had a binding signal of -0.168 E-score.
In the case of CCAATAGA it was -0.0604 E-score; in that of AAACGAGA, 0.106 E-score.
In the case of AGCCGCCT it was -0.284 E-score; in that of ATATACCG, 0.384 E-score.
In the case of AGCACTTA it was 0.0373 E-score; in that of AGTTCTGC, 0.0746 E-score; in that of GTGGCTTA, -0.147 E-score.
GCCACGCC came in with a binding signal of -0.312 E-score.
In the case of CAGAAGGC, the binding signal was -0.151 E-score.
AACTACCA yielded a binding signal of 0.433 E-score.
To AGGCACCT belongs -0.182 E-score; to ATCCTAGC, 0.0674 E-score.
The sequence ATCCGATG registered a binding signal of 0.0166 E-score.
For CCAGGCTA, the binding signal was -0.0727 E-score.
In the case of CACAGGCG it was -0.233 E-score; in that of TCGTAACA, -0.0292 E-score.
To CGTGCCGC belongs -0.266 E-score; to GGAGAGTA, -0.135 E-score; to AATCTGCC, 0.0535 E-score.
To ATGCACTC belongs -0.113 E-score.
Sequence CTTGCTGA came in with a binding signal of 0.00535 E-score.
Turning to CAAGCGAC, the binding signal is -0.0596 E-score.
CGAATCCA: the binding signal is -0.0594 E-score.
To CGGCATAG belongs -0.0893 E-score; to GCTTCCAC, -0.151 E-score.
To ACGTAAAC belongs 0.094 E-score.
As for AAGCTCCT, the binding signal was -0.203 E-score.
Consider AGCATGTC, for which the binding signal is 0.0814 E-score.
Regarding CAGCAGGA, the binding signal was -0.178 E-score.
To ACCGTTTG belongs -0.0593 E-score; to ATTTCGTG, 0.107 E-score.
To ATATCCGG belongs 0.129 E-score.
To AGCGGCGG belongs -0.182 E-score.
The sequence ATTCGTTA came in with a binding signal of 0.304 E-score.
In the case of GTGATAAA it was 0.22 E-score.
To ACGATGCG belongs -0.177 E-score; to CTGCATGA, -0.229 E-score.
The sequence CCTTCGGA had a binding signal of -0.208 E-score.
In the case of GCGGATAC it was 0.117 E-score.
In the case of CTTTTGAC it was 0.0255 E-score; in that of AAGTTAGT, 0.266 E-score.
Take AGCCGACT: the binding signal was -0.0753 E-score.
To AAACCCTC belongs -0.0736 E-score; to AGTGGAGG, -0.233 E-score; to AACGAGCT, -0.224 E-score.
In the case of CAATACAG it was -0.226 E-score; in that of CTCCTCCC, -0.274 E-score; in that of CATTTTCA, -0.075 E-score.
In the case of ACGGAGAG it was -0.18 E-score.
Regarding CAACTTTA, the binding signal is 0.101 E-score.
Consider AGATTCCA, for which the binding signal is -0.0445 E-score.
In the case of CAAACACC it was -0.0978 E-score; in that of CCTTTACA, 0.0334 E-score.
In the case of GTCGCCAA it was -0.125 E-score; in that of AAACGTTC, -0.0945 E-score; in that of AATTACCT, 0.288 E-score.
In the case of CTCGGTTC it was -0.114 E-score.
On to CACTCCGC, for which the binding signal was -0.138 E-score.
Take CAGCGTCC: the binding signal was -0.225 E-score.
To CCACCAGA belongs -0.16 E-score; to CAACCCAG, -0.157 E-score; to GATCTTGA, -0.0384 E-score.
The sequence ATTGGTTG registered a binding signal of 0.0136 E-score.
With AGAATAGG, the binding signal is -0.081 E-score.
AGTGCCGC gave a binding signal of -0.0284 E-score.
To CCACTTGA belongs 0.0687 E-score; to AACGCGAA, 0.00876 E-score; to CGTATAGC, 0.108 E-score.
In the case of ATCGATTG it was 0.0686 E-score.
To CCGGCTTA belongs -0.145 E-score.
Turning to GGTGATAC, the binding signal was determined as 0.0208 E-score.
Regarding CTGCGCTC, the binding signal is -0.337 E-score.
On to AAATAGCT, for which the binding signal stood at 0.336 E-score.
To CAGTTTTA belongs 0.17 E-score; to CTTATGCC, -0.0842 E-score; to TGCTCCCA, -0.103 E-score.
As to CCGCTCAC, the binding signal was -0.223 E-score.
As to AGCACTAC, the binding signal amounted to 0.104 E-score.
In the case of AGTTGTAT it was 0.299 E-score.
To CCTTGCTC belongs -0.189 E-score.
CTCGACAC showed a binding signal of -0.144 E-score.
Regarding ACAGGTAG, the binding signal amounted to 0.1 E-score.
Sequence GTGTTAGA had a binding signal of 0.0835 E-score.
For the sequence AAACCAGT, the binding signal is -0.0399 E-score.
Sequence CATCAGAA had a binding signal of -0.0518 E-score.
For the sequence TAGTGACA, the binding signal is 0.0704 E-score.
AACAAAGC had a binding signal of 0.0826 E-score.
AACGGACC gave a binding signal of -0.186 E-score.
AGAAACCG registered a binding signal of -0.049 E-score.
AGTCATTG registered a binding signal of -0.06 E-score.
To ATGAGCTA belongs 0.0625 E-score.
In the case of GCTGAAAC it was -0.122 E-score; in that of AGTAACTA, 0.436 E-score; in that of AGTGCTAA, 0.208 E-score.
Consider ACTTGGAA, for which the binding signal worked out at 0.0252 E-score.
CAGTGAGA registered a binding signal of -0.139 E-score.
Sequence TAGTCTAA displayed a binding signal of 0.139 E-score.
In the case of ACCGGTCG it was -0.167 E-score; in that of AGTCCTTG, -0.0271 E-score; in that of TACCCCCA, -0.178 E-score.
To CTGTACTA belongs 0.0893 E-score; to ACCTATTC, 0.0409 E-score.
To CCGGTCCG belongs -0.0984 E-score.
In the case of CGTACGAC, the binding signal amounted to 0.00795 E-score.

Values taken from publication PMC6212790.
